Assay results from PMC12136788.
The list shows a part of the results.

T1: UNK ZnF1-6 (called full-length) (human, UniProt Q9C0B0 30-357)
T1 sequence: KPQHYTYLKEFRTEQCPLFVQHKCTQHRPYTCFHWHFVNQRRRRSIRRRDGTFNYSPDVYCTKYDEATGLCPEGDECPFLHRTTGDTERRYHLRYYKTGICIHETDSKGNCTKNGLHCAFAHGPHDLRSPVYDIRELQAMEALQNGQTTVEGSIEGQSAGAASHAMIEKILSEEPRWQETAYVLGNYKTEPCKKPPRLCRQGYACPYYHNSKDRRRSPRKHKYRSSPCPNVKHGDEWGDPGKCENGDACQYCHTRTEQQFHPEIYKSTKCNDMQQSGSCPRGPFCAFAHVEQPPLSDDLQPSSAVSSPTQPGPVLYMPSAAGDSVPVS

B1: chr12:89642165:89642281:-|CDS|ENSG00000070961|unk|FALSE|bound_elsewhere (ssRNA)
RNA: GGGAGUUCUACAGUCCGACGAUCGCCAAAAACCUUUCUUCAAUUAGUAUGGGAAGCAUUACAAGAUGUCACUUUAAUUAUAUUAGAAAUUGCAGCCAUAGUAUCAUUGGGCCUUUCUUUUUAUCAGCCUCCAGAAGGGGAUAACAACAGAGGAUUGAGCAUCA
B2: ENSG00000070961:be:win_5551|3pUTR|ENSG00000070961|bound_else_gene|NA|bound_elsewhere_windowed (ssRNA)
RNA: GGGAGUUCUACAGUCCGACGAUCAAUUGUACAUUUAUUCAUCAGGUAUUUAUAGUGAAUCAUACUGUAAAAAAGAGGUAGCAUGAUAUGCUGGAAAGCAUAUUAGACUAGGAGUCAAGACCUGGUUUCUAGUCUUGGUUUUGCCAACAGAGGAUUGAGCAUCA
B3: chr12:3284029:3284272:+|3pUTR|ENSG00000011105|msi1|total|mutant (ssRNA)
RNA: GGGAGUUCUACAGUCCGACGAUCCAUGUGGGUAUUCCCACAACAGGUUCUGCACACCCCAGUUAUUUCACAGACAUUCCUGCCCGAAACUGUCAGACAAAUACCUCUCCCGUUCGGAUGCUGCUCACUUUCCCCCUUGCUUCUCAACAGAGGAUUGAGCAUCA
B4: chr1:54031757:54031935:-|3pUTR|ENSG00000116209|msi1|FALSE|unique (ssRNA)
RNA: GGGAGUUCUACAGUCCGACGAUCUUAGCUAUGAGCUGAUCAUUGCUCCUUCUCACCUCCUGCCAUGAUACUGUCAGUUACCUUAGUUAACAAGCUGAAUAUUUAGUAGAAAUGAUGCUUCUGCUCAGGAAUGGCCCACAAAUCCAACAGAGGAUUGAGCAUCA
B5: chr8:94436494:94436868:-|CDS|ENSG00000265817|control|control|control (ssRNA)
RNA: GGGAGUUCUACAGUCCGACGAUCAAUAGUAGAAAAGAAUAGAUGUUGGGAUAUCAUAGCAGUUAACUAUAAUGCAAUUGGAGUAGACCGCCCUCCUCGAACAGCACAGGGCCUACGCACCCUUUAUAAAAGGCUCAAAGAAUACAACAGAGGAUUGAGCAUCA
B6: ENSG00000135632:stop:overlap|stop_codon|ENSG00000135632|stop_codon|NA|stop_codon (ssRNA)
RNA: GGGAGUUCUACAGUCCGACGAUCAACGGCCCCUGGUGGCUGCACAGUUUCUCUGGAAUGCACUUUAUCGCUACCGAGGGCACUAGAGAAGGCAGAGGAGAAUGCCCAGAGGCUGACCGGGAAACCAGGCCAGGUUCUGCCUCACAACAGAGGAUUGAGCAUCA
B7: chr7:29923496:29923595:-|3pUTR|ENSG00000136193|msi1_unk|FALSE|overlapping (ssRNA)
RNA: GGGAGUUCUACAGUCCGACGAUCUCACAGUGCCGAGUUGGCGGGAAAAGCAAAUUCUUUUGAAGUCUUAGUCUUUCCCUCAGUAGCGGUUUCUUUCAGGUUAACAAGAGGCAUUUGUGCACACACACAGGGCUCUUGUGUGUGCAACAGAGGAUUGAGCAUCA
B8: chr3:7579146:7579247:+|CDS|ENSG00000196277|unk|total|mutant (ssRNA)
RNA: GGGAGUUCUACAGUCCGACGAUCGCCAGAGGGGUUCUCAAGUGUGACAUUACAGAUCUCCAAAUCAUUUGCUCCUUGGGAUACCGCAUUCUUCUCAUGGUCACAUGUACUGUGUAUGCCAUCAAGACUCGGGGUGUACCCGAGCAACAGAGGAUUGAGCAUCA
B9: chr10:119917856:119917957:+|CDS|ENSG00000107651|unk|FALSE|unique (ssRNA)
RNA: GGGAGUUCUACAGUCCGACGAUCUAAGAAAAUCACUUUGCCAAGUAUUGGUCGAUUUCGUCACUUUACCAAUGAAACUUUGCUAGAUAUUUUAUUUUAUAACAGCCCCACCUACUGUCAGACAAUUGUGGAAAAAGUAGGAAUCAACAGAGGAUUGAGCAUCA
B10: chr7:100033925:100034026:+|CDS|ENSG00000106261|msi1|FALSE|bound_elsewhere (ssRNA)
RNA: GGGAGUUCUACAGUCCGACGAUCCAGAGCUCGGACCUCACCAAGCAUCAGAGAAUUCACACGGGGGAGAAACCCUAUGAAUGUAGUGAAUGUGGAAAAGCUUUCAACCGAAACUCAUACCUGAUUUUGCAUCGGAGAAUUCACCAACAGAGGAUUGAGCAUCA
B11: chr14:23275577:23277187:-|CDS|ENSG00000290292|control|control|control (ssRNA)
RNA: GGGAGUUCUACAGUCCGACGAUCGCAGGUGCUGGAUUGGUUUGACUCUCGAUUACCUCAGCCAGCUGAGGUGGUAGUUUGUCUAGAUGAAGAAGAGGAAGAGGAGGAGGAAGAACUGCCAGAAGAUGAUGAGGAAGAGGAGGACAACAGAGGAUUGAGCAUCA
B12: chr2:16549458:16552935:-|three_prime_utr|ENSG00000197872|control|control|control (ssRNA)
RNA: GGGAGUUCUACAGUCCGACGAUCUUGCUACUGGAGUCCUUUAACAACAUCUAUAACGAUAAAAAAUUCCUAAUUGUUUGUGGUAGUAUUUUAAUUCUAGAUGUGUUAUCUCUCUGGGAAGUAUAGUUUAUAGAAACACAAAAUCAACAGAGGAUUGAGCAUCA
B13: chr1:193096648:193096749:-|CDS|ENSG00000023572|msi1_unk|total|mutant (ssRNA)
RNA: GGGAGUUCUACAGUCCGACGAUCCAACAGGUUCCAAGAAUAUUUGUCAAUGGUACUUUUAUUGGAGGUGCAACUGACACUCACCGGCUUCACAAAGAAGGAAAAUUGCUCCCACCCGUUCAUCAGUGUUAUUUAAAAAAAAGUCAACAGAGGAUUGAGCAUCA
B14: chr6:11183298:11183399:-|3pUTR|ENSG00000111859|msi1|total|mutant (ssRNA)
RNA: GGGAGUUCUACAGUCCGACGAUCACAUUUCACAUUUUUAAAACCAAAUGUUCAAUCUGUAUUACUCUUUGCCGUCUUGUAUGCCGAGGCUAUUUUUAAAUCAUUAAAUUUUCCGAUCUCUGUUUUCACCGCCACUGGGUUUUCCAACAGAGGAUUGAGCAUCA
B15: chr7:38725943:38726055:-|3pUTR|ENSG00000006715|unk|FALSE|unique (ssRNA)
RNA: GGGAGUUCUACAGUCCGACGAUCGAAAUUUUGGGGUCCAUAGUGAAUAUUUUGUUAUUUAUUUGUUUGGCUCAUUCUUUAUAUAGUAAUGGAAACAUAAGUCUAGGAGUUAGAAAUGAAUUUUUUAGACCUUAGUAAAACCAUCAACAGAGGAUUGAGCAUCA
B16: chr5:95604386:95604487:+|3pUTR|ENSG00000164291|msi1|total|mutant (ssRNA)
RNA: GGGAGUUCUACAGUCCGACGAUCCCUGCCAUCCAGUUCCCCCUCCAAGAAGCAAGUACCGAAACCACCUGCUUACGCAUUUUCCGAGAUUGGCCACAAAUUUAUAAACAAAUGUAUAUAUUCCUUUCCCCCUACACAAACGGUCAACAGAGGAUUGAGCAUCA
B17: chr9:19286831:19286940:+|CDS|ENSG00000137145|unk|total|mutant (ssRNA)
RNA: GGGAGUUCUACAGUCCGACGAUCAUUCCAGGAUGUGAAGUGAUCCCCGCCACACCCUAUGGUCGCUGUGCCAAUGUCAACAACCGUUCAACUACUUCACAAAGAAUCUUUAUCACUUAUCGAAGGGCUCCUCCAGUUCGACCCCAACAGAGGAUUGAGCAUCA
B18: chrX:135156539:135157311:-|three_prime_utr|ENSG00000169551|control|control|control (ssRNA)
RNA: GGGAGUUCUACAGUCCGACGAUCUUUAUUCUGUUUAUCUUUCCUUUUAUGAGCAGUAAAGGGGCUGGUUUAACUUAAAAGGUUAGCUUAGUAAGCCUAAAUAGUAUUUUAUAUAUGACUUUUCUGGCAAAUCUAAUUGAGACACAACAGAGGAUUGAGCAUCA
B19: chr16:46799225:46799326:-|3pUTR|ENSG00000155330|unk|total|mutant (ssRNA)
RNA: GGGAGUUCUACAGUCCGACGAUCUUACAUUUGGAAGUACAUGUAUAUAUGUUUAUAUAUUUUUAUUCUCAGGAUCUAUUUUCCCGGGAACUAUUUUUUUAAAUUAUUCUUUUGUGCUGCCUUAACCCAUUUAUUACCGUUUGACAACAGAGGAUUGAGCAUCA
B20: chr4:165277806:165277983:-|three_prime_utr|ENSG00000229894|control|control|control (ssRNA)
RNA: GGGAGUUCUACAGUCCGACGAUCCUUUUUACAUAAUGAAAGAACAACCCAGCAAUUGUCUCUUAAUGCGAUGACACUAUUCAUAGACUUUGAUUUUAUUUAUAAGCCACUUGCUGCGUGACCCUCCAAGUAGACCUGUGGCUUCAACAGAGGAUUGAGCAUCA
B21: chr1:151249111:151249212:+|3pUTR|ENSG00000143398|unk|FALSE|unique (ssRNA)
RNA: GGGAGUUCUACAGUCCGACGAUCGCAGAUUGUUGAAUUCCUGUUCUAUCCCUUCUCUAUCCCACCCUGCCUUGAUAAUAUGUUAGCCCAUACCCCAAAUAACUGUCUAUAUUAGACACCCCCAGCCAGUUUCUGGCUGCCUGUCAACAGAGGAUUGAGCAUCA
B22: ENSG00000124766:be:win_601|CDS|ENSG00000124766|bound_else_gene|NA|bound_elsewhere_windowed (ssRNA)
RNA: GGGAGUUCUACAGUCCGACGAUCUCCAAAGUGGCGGGCGGCGCGGGCGGUGGGGUUAGCAAACCGCACGCCAAGCUCAUCCUGGCAGGCGGCGGCGGCGGCGGGAAAGCAGCGGCUGCCGCCGCCGCCUCCUUCGCCGCCGAACAACAGAGGAUUGAGCAUCA

Each binder was assayed against T1, UNK ZnF1-6 (called full-length) (assay: nsRBNS (natural sequence RNA bind-n-seq); RBNS binding buffer (assumed for nsRBNS): 25 mM Tris pH 7.5, 150 mM KCl, 3 mM MgCl2, 0.01% Triton X-100, 500 ug/ml BSA, 20 U/ml SUPERase-In, 4 C; UNK is unkempt and MSI1 is Musashi-1; names of the RNAs are library labels; protein concentration not given here; high values mean tight binding).
In the case of B1, the binding signal is reported as 3.35 enrichment R. Work on B2 yielded a binding signal of 0.3 enrichment R. B3 showed a binding signal of 1.05 enrichment R. For B4, the binding signal was 0.756 enrichment R. B5 was tested, and the binding signal was 3.51 enrichment R. With B6 the binding signal was 0.714 enrichment R. With B7 the binding signal was 0.396 enrichment R. With B8 the binding signal was 0.501 enrichment R. B9 gave a binding signal of 2.36 enrichment R. For B10, the binding signal was 0.607 enrichment R. Work on B11 yielded a binding signal of 1.85 enrichment R. Binder B12 has a binding signal of 4.45 enrichment R. In the case of B13, the binding signal is reported as 0.398 enrichment R. B14 was tested, and the binding signal was 1.08 enrichment R. Work on B15 yielded a binding signal of 7.17 enrichment R. Binder B16 has a binding signal of 1.51 enrichment R. Work on B17 yielded a binding signal of 0.7 enrichment R. Work on B18 yielded a binding signal of 1.68 enrichment R. With B19 the binding signal was 1.87 enrichment R. Binder B20 has a binding signal of 1.27 enrichment R. In the case of B21, the binding signal is reported as 2.26 enrichment R. In the case of B22, the binding signal is reported as 0.449 enrichment R.
